Assay results reported in the antibiotic and cytotoxicity screens of Wong et al. (2023).
The other results are listed elsewhere or left out.

test system: S. aureus RN4220; assay: growth inhibition call (relative growth <= 0.2); settings: 50 µM

Growth inhibition call, inactive:
O=C(Nc1ccc2c(c1)[C@@H]1C[C@H](CC(=O)N3CCc4ccccc4C3)O[C@@H](CO)[C@@H]1O2)C1CCOCC1
COCC(=O)N(C)C[C@H]1Oc2cc(C#C[C@H](C)O)ccc2S(=O)(=O)N([C@@H](C)CO)C[C@@H]1C
OCC(CO)NC1CC(O)(CO)C(O)C(O)C1O (stereo not given)
C[C@@H]1CCCCO[C@@H](CN(C)C)[C@@H](C)CN([C@H](C)CO)C(=O)c2cc(NC(=O)Nc3ccc(C(F)(F)F)cc3)ccc2O1
Cc1noc(C)c1S(=O)(=O)Nc1cccc2c1O[C@@H](CN(C)S(=O)(=O)c1ccc(F)cc1)[C@@H](C)CN([C@@H](C)CO)C2=O
C[C@@H]1CN([C@@H](C)CO)C(=O)c2cc(NC(=O)Cc3cn(C)c4ccccc34)ccc2O[C@H]1CN(C)Cc1ccc(C(F)(F)F)cc1
C[C@H]1CN([C@@H](C)CO)C(=O)c2cccc(NC(=O)C3CCOCC3)c2O[C@H]1CN(C)C(=O)Nc1ccccc1
Cc1ccc(S(=O)(=O)Nc2ccc3c(c2)CC(=O)N([C@@H](C)CO)C[C@@H](C)[C@H](CN(C)C(=O)Nc2cccc4ccccc24)O3)cc1
C=CCOC(=O)N(C)C[C@@H]1OCCCC[C@H](C)Oc2ccc(NC(=O)Nc3ccccc3)cc2C(=O)N([C@@H](C)CO)C[C@H]1C
Cc1noc(C)c1S(=O)(=O)Nc1ccc2c(c1)C(=O)N([C@@H](C)CO)C[C@@H](C)[C@@H](CN(C)C(=O)Nc1ccc3c(c1)OCO3)O2
COc1ccc(S(=O)(=O)Nc2cccc3c2O[C@H](CN(C)S(=O)(=O)c2cn(C)cn2)[C@H](C)CN([C@H](C)CO)C3=O)cc1
C[C@H](CO)N1C[C@H](C)[C@H](CN(C)C(=O)Nc2ccc(C(F)(F)F)cc2)Oc2ccc(NC(=O)Nc3ccccc3)cc2C1=O
Cc1ccc(-c2ccc(OC(=O)c3ccccc3F)cc2)cc1
C[C@H]1CN([C@@H](C)CO)C(=O)c2cc(NC(=O)Cn3cnnn3)ccc2O[C@H]1CN(C)CC1CC1
Cc1noc(C)c1S(=O)(=O)Nc1ccc2c(c1)C(=O)N([C@@H](C)CO)C[C@H](C)[C@@H](CN(C)CC1CCCCC1)OCCCC[C@@H](C)O2
CC(C)NC(=O)Nc1ccc2c(c1)C(=O)N([C@@H](C)CO)C[C@@H](C)[C@H](CN(C)CC1CCCCC1)OCCCC[C@@H](C)O2
C[C@H]1CN([C@@H](C)CO)C(=O)Cc2cc(NC(=O)Cn3cnnn3)ccc2O[C@@H]1CN(C)Cc1ccc(C(=O)Nc2ccccc2N)cc1
COc1ccc(CCNS(=O)(=O)c2cn(C)c(=O)n(C)c2=O)cc1
C[C@@H]1CCCCO[C@H](CN(C)C(=O)Nc2cccc3ccccc23)[C@@H](C)CN([C@@H](C)CO)C(=O)c2cc(NC(=O)CCC(F)(F)F)ccc2O1
Cc1ccc(S(=O)(=O)N(C)C[C@@H]2Oc3ccc(NS(C)(=O)=O)cc3CC(=O)N([C@H](C)CO)C[C@@H]2C)cc1
COc1ccc(CN(C)C[C@@H]2Oc3c(NC(=O)c4ccc(-c5nccs5)cc4)cccc3C(=O)N([C@H](C)CO)C[C@H]2C)cc1
OC1(Cn2ccnc2)CCNCC1
Cc1ccc(S(=O)(=O)Nc2ccc3c(c2)C(=O)N([C@@H](C)CO)C[C@@H](C)[C@@H](CN(C)Cc2ccc(C(F)(F)F)cc2)O3)cc1
C[C@@H]1CN([C@@H](C)CO)C(=O)Cc2cc(NC(=O)Nc3ccc4c(c3)OCO4)ccc2O[C@@H]1CN(C)S(=O)(=O)c1cn(C)cn1
C[C@H]1CCCCO[C@@H](CN(C)S(=O)(=O)c2ccc(Cl)cc2)[C@@H](C)CN([C@@H](C)CO)C(=O)c2cc(NC(=O)NC3CCCCC3)ccc2O1
C[C@H](CO)N1C[C@H](C)[C@H](CN(C)Cc2ccccc2)Oc2c(NC(=O)c3ccc(-c4nccs4)cc3)cccc2C1=O
C[C@@H]1CN([C@@H](C)CO)C(=O)c2c(c3ccccc3n2C)-c2ccccc2CO[C@@H]1CN(C)C(=O)Nc1ccc2c(c1)OCO2
C[C@H]1CN([C@@H](C)CO)C(=O)c2cccc(NC(=O)C3CCCCC3)c2O[C@@H]1CN(C)Cc1ccc(Oc2ccccc2)cc1
C=CC[C@@H](CC(=O)N(CCO)Cc1ccccc1)C(=O)N[C@@H](COC(=O)[C@@H](CC=C)Cc1ccc(F)cc1)Cc1c[nH]c2ccccc12
Cc1nnn(C23C[C@@H]4C[C@@H](CC(NC(=O)[C@H](N)CC(C)C)(C4)C2)C3)n1
CN1CCN(C(=O)[C@@H]2[C@@H](CO)[C@@H]3Cn4c(cccc4=O)[C@H]2N3S(=O)(=O)c2ccccc2F)CC1
C[C@@H]1CCCCO[C@@H](CN(C)C)[C@H](C)CN([C@@H](C)CO)C(=O)c2cc(NC(=O)CCCN(C)C)ccc2O1
C[C@H]1CN([C@@H](C)CO)C(=O)c2cccc(NC(=O)C3CC3)c2O[C@H]1CN(C)S(=O)(=O)c1cccs1
C[C@H](CO)N1C[C@H](C)[C@H](CN(C)Cc2ccncc2)OCCCC[C@H](C)Oc2ccc(NC(=O)Nc3cccc4ccccc34)cc2C1=O
CC(C)NC(=O)N(C)C[C@@H]1Oc2ccc(NC(=O)Nc3ccc4c(c3)OCO4)cc2CC(=O)N([C@@H](C)CO)C[C@@H]1C
C[C@H]1CN([C@@H](C)CO)S(=O)(=O)c2ccc(C#CCN(C)C)cc2O[C@H]1CN(C)C(=O)C1CCCCC1
C[C@H](CO)N1C[C@H](C)[C@@H](CN(C)Cc2ccc(F)cc2)Oc2cc(C#CC(C)(C)O)ccc2S1(=O)=O
C[n+]1ccc(CCCO)cc1
COc1ccc(NC(=O)Nc2ccc3c(c2)[C@H]2C[C@H](CC(=O)NCC(F)(F)F)O[C@@H](CO)[C@H]2O3)cc1
COC1C=CC23c4cc5c(cc4CN(CC2O)C3C1)OCO5 (stereo not given)
